Measurements: PubChem BioAssay AID1458 (National Center for Advancing Translational Sciences (NCATS), 2008)
Where “and” joins values, the source holds several entries; their conditions need not be identical. Identical values can stand only once. Hit rate of the full screen: of about 210,000 compounds, about 5,900 (2.8%) were called active. The shares of active, inactive and inconclusive entries below differ from those in the screen. Calls follow the shape of the dose curve; as a rule, active = well fitted activation curve with a large enough effect; inconclusive = small, poorly fitted or top-dose-only effect; inactive = no such curve, though single readings can be large or run the other way. Potencies beside an inconclusive call are fits to weak or partial responses and may not hold up.

Assay: qHTS Assay for Enhancers of SMN2 Splice Variant Expression; also: nearly all actives have a fitted effect of over 55% in size; as to activity change, positive = activation: % of control where 0% means no effect
Details: HEK293 SMN2-luciferase splicing reporter, luminescence, 30-36 h; activity change, positive = activation: at 46.1 µM (top of the series)
How it was run: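 HEK293 cells carry an SMN2 […]–luciferase reporter in which exon 7 inclusion puts luciferase in frame. Cells were plated 10-12 h before compound addition, then incubated 30-36 h at 37C. ONE-Glo luminescence was read; sodium butyrate at 4.5 mM final served as control.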
Potency is read from the fitted curve at half-maximal effect; tags tell the direction and shape of the fitted curve.

| SMILES | Potency | activity change, positive = activation |
| --- | --- | --- |
| Cn1c(NCc2ccccc2)cc(=O)n(C)c1=O | inconclusive: 14.1 µM [activator, partial curve, poor fit] |  |
| O=C(NCc1ccncc1)C(=O)NCC(c1ccco1)N1CCN(c2ccc(F)cc2)CC1 (stereo not drawn) | inconclusive: 0.004 µM [activator, full curve, poor fit] |  |
| CN1C(=O)C(Cc2c[nH]c3ccccc23)NC1=S (stereo not drawn) | active: 12.6 µM |  |
| O=C(Nc1ccccc1)OCC1CCCN2CCCCC12 (stereo not drawn) |  | inactive: 13.4% |
| COc1cc2[nH]cc(C(=O)NCCc3ccccc3)c(=O)c2cc1OC | inconclusive: 5.62 µM [activator, partial curve, poor fit] |  |
| CC1CCN(C(=O)c2cc(F)c(F)cc2Cl)CC1 | inconclusive: 35.5 µM [activator, single point] |  |
| COc1ccccc1OCCn1c(NC(=O)c2ccccc2Cl)nc2ccccc21 |  | inactive: -3.94% |
| O=Cc1ccc(N2CCCC2)c([N+](=O)[O-])c1 |  | inactive: -2.57% |
| COc1ccc(-c2c(C)n([O-])c3c([n+]2=O)CCC3)cc1OC | inconclusive: 0.112 µM [activator, full curve] |  |
| O=C(Nc1cccc(Cl)c1)Nc1nc(-c2ccc(Cl)cc2)cs1 |  | inactive: -46.4% |
| Cc1ccc(OCC(=O)Nc2ccccc2-c2ccccc2)cc1 | inconclusive: 20 µM [activator, single point] |  |
| CCC1=NN2C(=N)/C(=C\c3cccn3-c3c(C)cccc3C)C(=O)N=C2S1 | inconclusive: 35.5 µM [activator, single point] |  |
| CCOc1cc2sc(N3CCC(C(=O)Nc4ccc(CC)cc4)CC3)nc2cc1Br | inconclusive: 20 µM [activator, single point] |  |
| CCN(CC)CCNc1nc2cc(OC)c(OC)cc2c2nc(-c3ccccc3)nn12 | inconclusive: 1.26 µM [activator, full curve, poor fit] |  |
| CCOC(=O)N1CCN(C(=O)c2nn(-c3ccc(C)cc3)c(=O)c3c2c2ccccc2n3C)CC1 | inconclusive: 1.41 µM [activator, full curve, poor fit] |  |
| Nc1c(C(=O)NCc2ccco2)sc2nc3c(cc12)C(=O)CCC3 | inconclusive: 7.94 µM [activator, partial curve, poor fit] |  |
| CCCCOc1ccc(-c2cn3ccccc3n2)cc1[N+](=O)[O-] | active: 6.31 µM |  |
| COc1cccc(-c2csc(NC(=O)Oc3ccccc3)n2)c1 |  | inactive: -6.49% |
| CCOC(=O)/C(=N/Nc1ccccc1)N1CCCc2ccccc21 | inconclusive: 12.6 µM [activator, partial curve, poor fit] |  |
| O=C(O)COn1c(-c2ccccc2)nc2ccc(Cl)cc21 | inconclusive: 2 µM [activator, full curve, poor fit] |  |
| COC(=O)c1c(-c2ccccc2)csc1NC(=O)c1c(-c2ccccc2)noc1C | inconclusive: 5.62 µM [activator, single point] |  |
| CC(C)NC(=O)c1ccc(-c2ccccc2C(F)(F)F)o1 | inconclusive: 2.82 µM [activator, full curve, poor fit] |  |

| SMILES | Potency | activity change, positive = activation |
| --- | --- | --- |
| NC(=O)c1ccccc1NS(=O)(=O)c1ccccc1 | inconclusive: 35.5 µM [activator, partial curve, poor fit] |  |
| Cc1nn(-c2nc3ccccc3[nH]2)c(N)c1-c1ccc(Cl)cc1 | inconclusive: 11.2 µM [activator, partial curve, poor fit] |  |
| Cc1cc(N2CCCCC2)nc2ccc(NC(=O)/C=C/c3ccc(OCCC(C)C)cc3)cc12 |  | inactive: 0.193% |
| Cc1c(NC(=O)c2cc(-n3cnnc3)ccc2Cl)cccc1-c1nc2ccccc2s1 | active: 5.62 µM |  |
| CCOc1ccc(NC(=O)c2cccnc2C(=O)O)cc1 |  | inactive: 8.33% |
| Nc1ncnc2c1ncn2C1OC(COP(=O)(O)O)C(O)C1O (stereo not drawn) | inconclusive: 31.6 µM [activator, single point] |  |
| COc1ccc(-n2c(SCC(=O)Nc3nccs3)nnc2-c2ccoc2C)cc1 |  | inactive: 3.85% |
| Cc1ccc2cc(C)c3nnc(SCC(=O)N4CCCc5ccccc54)n3c2c1C | inconclusive: 11.2 µM [activator, partial curve] |  |
| COc1ccccc1C(=O)NNC(=O)c1ccc(F)cc1 | active: 11.2 µM |  |
| CC(=O)c1c(C)[nH]c(C(=O)Nc2ccc(Cl)c(S(=O)(=O)N(C)C)c2)c1C | active: 11.2 µM |  |
| O=C(Nc1ccc2c(c1)OCO2)c1ccc(NC2CC2)c([N+](=O)[O-])c1 | inconclusive: 0.0089 µM [activator, full curve, poor fit] |  |
| O=C(Cc1ccc(Cl)cc1)Nc1ccc2oc(-c3ccncc3)nc2c1 | inconclusive: 14.1 µM [activator, partial curve, poor fit] |  |
| CCCc1cc2c(=O)c(-c3ccccn3)coc2cc1OC | inconclusive: 35.5 µM [activator, single point] |  |
| Cc1ccc(OCC(=O)O/N=C(\N)Cc2ccc(Cl)cc2)cc1 | inconclusive: 35.5 µM [activator, single point] |  |
| CCOC(=O)C1C(=O)NC(c2ccccc2)=NC1c1ccc(C(C)C)cc1 (stereo not drawn) | inconclusive: 5.62 µM [activator, single point] |  |
| CCOc1ccc(NC(=O)c2ccc3snnc3c2)cc1 | inconclusive: 22.4 µM [activator, single point] and inconclusive: 11.2 µM [activator, partial curve] |  |
| CCSc1ncccc1-c1nc2ccccc2[nH]1 | inconclusive: 20 µM [activator, single point] |  |
| COc1ccc(Cc2nnc(NS(=O)(=O)Cc3ccccc3)s2)cc1 | inconclusive: 0.01 µM [activator, full curve, poor fit] |  |
| O=c1c(-c2ccc(Cl)cc2)cnc2n1CCS2 | inconclusive: 12.6 µM [activator, single point] |  |
| COC(=O)[C@@]1(Cc2ccc(F)cc2)[C@H]2c3cc(C(=O)N4CCCC4)n(CCc4c[nH]c5cc(F)ccc45)c3C[C@H]2CN1C(=O)c1ccccc1 |  | inactive: -10.1% |
| CN=c1scc(C)n1/N=C/c1ccc(O)cc1 | inconclusive: 35.5 µM [activator, single point] |  |
